# PubChem BioAssay AID588855 (National Center for Advancing Translational Sciences (NCATS), 2011)
# Hit rate of the full screen: of about 410,000 compounds, about 5,000 (1.2%) were called active. Inconclusive means that the source gave no clear call. Such entries were picked first, then a sample of the others. Calls follow the shape of the dose curve; as a rule, active = well fitted inhibition curve with a large enough effect; inconclusive = small, poorly fitted or top-dose-only effect; inactive = no such curve, though single readings can be large or run the other way. Where the call is inconclusive, the potency comes from a doubtful curve fit.
# Assay: qHTS for Inhibitors of TGF-b; also: nearly all actives have a fitted effect of over 65% in size
# Conditions: HepG2 CAGA-GFP TGF-b/SMAD3 reporter, GFP fluorescence, 18 h, TGF-beta stimulated, 500 pg/mL final; series mostly up to 46.1 µM
# Method in brief: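 Using HEPG2 CAGA-GFP reporter cells at 1000 cells/well, we pinned test compounds, stimulated with recombinant TGF-beta (500 pg/mL final) and measured total well GFP after 18 h.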
# Potency is read from the fitted curve at half-maximal effect; tags tell the direction and shape of the fitted curve.
row,Structure (SMILES),Potency
1,CCOc1ccc2nc(N(CCCN(C)C)C(=O)c3ccc(S(=O)(=O)N4CCCC4)cc3)sc2c1,inactive
2,CC1C(=O)N2CCCc3cc(S(=O)(=O)N4CCN(c5cccc(Cl)c5)CC4)cc1c32 (configuration not stated),inactive
3,Cc1c(/C=N/NC(=O)c2ccccc2O)c2ccccn2c1C(=O)c1ccc(F)cc1,"inconclusive: 3.98 µM [inhibitor, full curve]"
4,O=C(NCC(=O)N1CCOCC1)OCc1ccccc1,inactive
5,Cc1ccc2oc(C(=O)Nc3sc4c(c3C(=O)NCc3cccnc3)CCCC4)cc(=O)c2c1,inactive
6,CC12CCC(=O)N1C(C(=O)N1CCN(c3ccccc3)CC1)CS2 (configuration not stated),inactive
7,CCc1ccc(NC(=O)Cn2c(=O)n(-c3cc(C)cc(C)c3)c(=O)c3oc4ccccc4c32)cc1,inactive
8,CC(=O)NC(Cc1ccccc1)C(=O)OCC(=O)c1ccccc1 (configuration not stated),"inconclusive: 0.112 µM [inhibitor, full curve, poor fit]"
9,COc1ccc(-c2nc(SCC(=O)Nc3ccc4c(c3)OCCO4)c(-c3ccccc3)[nH]2)cc1,"inconclusive: 28.2 µM [inhibitor, single point]"
10,O=C(COc1cccc2ccccc12)NNC(=O)c1cnccn1,"inconclusive: 3.55 µM [inhibitor, partial curve, poor fit]"
11,COc1cccc(C#CC2=CC(=O)CC(C)(C)C2)c1,"inconclusive: 31.6 µM [inhibitor, single point]"
12,COC(=O)CC1Oc2ccc(C)cc2-n2cc(-c3ccc(C)cc3)nc21 (configuration not stated),"inconclusive: 35.5 µM [inhibitor, single point]"
13,COc1ccc(CN2CCN(C(=O)Cn3nc(C(=O)O)c4ccccc4c3=O)CC2)cc1F,inactive
14,CCC(C)n1c(/C=C/c2ccccc2)nc2ccccc21 (configuration not stated),inactive
15,CCSc1nn(CC(=O)Nc2cccc(Cl)c2)c(N)c1S(=O)(=O)c1ccc(OC)cc1,"inconclusive: 12.6 µM [inhibitor, partial curve, poor fit]"
16,COc1ccc(-c2sc3ccccc3c2-c2ccc(O)cc2)cc1,"inconclusive: 11.2 µM [inhibitor, partial curve, poor fit]"
17,CCOC(=O)c1nnn(CC(=O)Nc2cccc(OC)c2)c1C(=O)OCC,"inconclusive: 35.5 µM [inhibitor, single point]"
18,COc1ccc(OC)c(-c2noc(N3CCN(c4cccc(C)c4C)CC3)n2)c1,"inconclusive: 35.5 µM [inhibitor, single point]"
19,CCn1c(SCC(=O)N2CCc3ccccc32)nnc1-c1c[nH]c2ccccc12,inactive
20,CC(C)(C)OC(=O)N(CCc1ccccc1)Cc1ccc(OCc2cccc(NC(=O)C3CCC3)c2)cc1,inactive
21,O=C(/C=C/c1ccco1)Nc1cccnc1Cl,"inconclusive: 0.562 µM [inhibitor, partial curve, poor fit]"
22,COc1cc(/C=N/NC(N)=O)ccc1OCC(=O)Nc1ccc(C)c(C)c1,inactive
23,O=[N+]([O-])c1ccc(-c2csc(N3CCc4ccccc4C3)n2)cc1,inactive
24,O=C(NCCc1ccc(F)cc1)c1cc(=O)c2ccccc2o1,"inconclusive: 10 µM [inhibitor, partial curve]"

row,Structure (SMILES),Potency
1,O=C(CNc1ccc(Cl)cc1)NNC(=S)NCc1ccccc1,"inconclusive: 35.5 µM [inhibitor, single point]"
2,O=C(c1ccccc1)N1CCN(C2CC3CCC2C3)CC1 (configuration not stated),inactive
3,COCCn1c(SCC(=O)Nc2cc(C)on2)nnc1-c1c[nH]c2ccccc12,"inconclusive: 12.6 µM [inhibitor, single point]"
4,O=C(CNc1ccc(Br)cc1)Nc1ccc(S(=O)(=O)N2CCCCC2)cc1,"inconclusive: 35.5 µM [inhibitor, single point]"
5,COc1ccc(CN2CC(=O)N3[C@H]4c5cc(C)ccc5OC[C@@H]4[C@H](c4ccccc4)[C@]3(C)C2=O)cc1,inactive
6,Cc1ccccc1/C=N/Nc1ncnc2nc[nH]c12,"inconclusive: 35.5 µM [inhibitor, single point]"
7,COc1ccc(S(=O)(=O)N2CCCCC2)cc1NC(=O)C1CC(=O)N(c2ccc3c(c2)OCCO3)C1 (configuration not stated),"inconclusive: 0.447 µM [inhibitor, full curve, poor fit]"
8,Cc1ccc(C(C[N+](=O)[O-])Sc2ccc(N)cc2)cc1 (configuration not stated),active: 11.2 µM
9,CCOC(=O)c1cc(C)n(CC2CCC(C(=O)Nc3cc(OC)cc(OC)c3)CC2)c1C (configuration not stated),"inconclusive: 7.08 µM [inhibitor, partial curve, poor fit]"
10,CCN(c1ccccc1)S(=O)(=O)c1ccc(C(=O)N(C)Cc2cccs2)cc1,inactive
11,CC1CCN(CC(=O)Nc2cccc(C(=O)Nc3cccc(C(F)(F)F)c3)c2)CC1,"inconclusive: 25.1 µM [inhibitor, single point]"
12,O=C(Cc1ccccc1)Nc1cc([N+](=O)[O-])ccc1N1CCOCC1,inactive
13,Cc1ccc(N2C(S)=C(C#N)C(=O)NC23CCCCC3)cc1,"inconclusive: 28.2 µM [inhibitor, single point]"
14,COc1ccc(NC(=S)NCc2ccccn2)cc1OC,inactive
15,COC(=O)CCN(C(=O)C1CCN(S(=O)(=O)c2c(C)noc2/C=C/c2ccccc2F)CC1)c1ccccc1,"inconclusive: 0.224 µM [inhibitor, full curve]"
16,COc1ccc2[nH]c3c(c2c1)CCN1C(=O)C(CC(=O)NCCC2=CCCCC2)C[C@H](C(=O)N2CCOCC2)[C@@]31CCC1CCCC1 (some centres not stated),inactive
17,C=CCn1c(SCn2nnc3ccccc3c2=O)nc2scc(-c3cccs3)c2c1=O,"inconclusive: 35.5 µM [inhibitor, single point]"
18,CC(=O)c1ccc(NC(=O)CN2C(=O)/C(=C/C(C)=C/c3ccccc3)SC2=S)cc1,inactive
19,COc1cc(NC(=O)c2cc(-c3cc(F)ccc3OC(C)C)n[nH]2)cc(OC)c1OC,inactive
20,CNc1ccc(-c2nc(-c3ccncc3)no2)cc1[N+](=O)[O-],inactive
21,O=C1C=C(c2cccc(Br)c2)C[C@@H](c2ccc(Cl)cc2)C1,"inconclusive: 28.2 µM [inhibitor, single point]"
22,Cc1cccc(NC(=O)C2Cc3ccccc3O/C2=N\O)c1 (configuration not stated),inactive
23,CCOC(=O)c1c(-c2ccccc2)oc2ccc(OCC(O)CNCCN(C)C)cc12 (configuration not stated),"inconclusive: 28.2 µM [inhibitor, single point]"
24,O=c1[nH]c(CN2CCN(C/C=C/c3ccccc3)CC2)nc2ccccc12,inactive

row,Structure (SMILES),Potency
1,CCN(CC)C(=O)c1cccc(-c2csc(C(O)c3cccc(Cl)c3)n2)c1 (configuration not stated),"inconclusive: 14.1 µM [inhibitor, single point]"
2,COC(=O)c1ccccc1NC(=O)CSc1nc2ccccc2nc1Cc1ccc(F)cc1,inactive
3,CC1CCCN(C(=O)COc2ccc(Nc3ccccc3)cc2)C1 (configuration not stated),inactive
4,CSc1nc2ccc(NS(=O)(=O)c3cccc(Cl)c3Cl)cc2s1,"inconclusive: 20 µM [inhibitor, single point]"
5,Cc1ccc(S(=O)(=O)N/N=C\c2cc([N+](=O)[O-])ccc2Cl)cc1,inactive
6,CCCCc1ccc(/C(C)=N/Nc2cc(N3CCOCC3)nc(C)n2)cc1,"inconclusive: 25.1 µM [inhibitor, single point]"
7,CCCC(O)(c1ccc(CC)cc1)C(CN1CCOCC1)c1ccccc1 (configuration not stated),"inconclusive: 17.8 µM [inhibitor, single point]"
8,N#C/C(=C\c1cccc(NC(=O)c2ccccc2Cl)c1)C(=O)NCCc1ccccc1,"inconclusive: 14.1 µM [inhibitor, partial curve, poor fit]"
9,CCCCCn1c(N(C)Cc2ccccc2)nc2c1c(=O)[nH]c(=O)n2C,"inconclusive: 6.31 µM [inhibitor, full curve, poor fit]"
10,CCC(C)C(=O)Nc1nc2ccc(OC)cc2s1 (configuration not stated),inactive
11,CC(CC(=O)Nc1ccc(F)cc1)S(=O)(=O)c1cc2c3c(c1)CCN3C(=O)CC2 (configuration not stated),inactive
12,CN(C)c1ccc(CNC(=O)C2CCN(S(=O)(=O)c3ccc4c(c3)CCC(=O)N4)CC2)cc1,inactive
13,Cc1cc(=O)oc2cc(O)ccc12,inactive
14,CCc1nc(NCCN2CCOCC2)c2oc3ccccc3c2n1,inactive
15,CCOC(=O)C1=C(CN2c3ccccc3CC2C)NC(=O)NC1c1ccccc1 (configuration not stated),"inconclusive: 35.5 µM [inhibitor, single point]"
16,Cc1cc(Nc2ccc([N+](=O)[O-])cc2)c2ccccc2n1,"inconclusive: 12.6 µM [inhibitor, single point]"
17,Cc1ccc(C)c(NC(=O)CSc2nnc(-c3ccncc3)n2N)c1,"inconclusive: 4.47 µM [inhibitor, single point]"
18,CCOC(=O)c1ccc(-n2c(CCC(=O)O)ccc2-c2ccccc2)cc1O,"inconclusive: 12.6 µM [inhibitor, partial curve]"
19,Cc1ccc(NC(=O)c2cc3c(s2)CCCC3)cc1S(=O)(=O)Nc1ccccc1Cl,active: 10 µM
20,CC(C)CCNc1nc(Nc2ccccc2)c2cnn(C)c2n1,"inconclusive: 22.4 µM [inhibitor, single point]"
21,CN(C)CCOc1ccc(-c2c(-c3ccccc3)sc3ccccc23)cc1,"inconclusive: 35.5 µM [inhibitor, single point]"
22,COc1ccccc1C(CNC(=O)c1cccc(S(=O)(=O)N2c3ccccc3CC2C)c1)N(C)C (configuration not stated),"inconclusive: 31.6 µM [inhibitor, single point]"
23,O=C(NNc1c2ccccc2nc2ccccc12)C12CC3CC(CC(C3)C1)C2,"inconclusive: 28.2 µM [inhibitor, single point]"
24,CCc1ccccc1S(=O)(=O)Cc1ccc(C(=O)NCCc2ccc(Cl)cc2)o1,active: 11.2 µM
